# From the supplement of paper PMC8728848
# This is one part of the list.
# Tests used:
# Test in all cases: glycan array binding signal (z-score within array); higher = stronger binding
# Details in all cases: glycan notation: IUPAC condensed, linker removed
# Fuc(a1-2)Gal = target: Fuc(a1-2)Gal
# Outline: (§1)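 Arrays were curated from the Consortium for Functional Glycomics database, 3228 in total, and kept only where the protein sequence was available. Binding is expressed as a within-array Z-score. This score was averaged across arrays of the same protein sequence at different concentrations or buffers and across linkers, and negative values can be read as non-binding.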
# Fuc(a1-2)Gal(b1-3)GalNAc = target: Fuc(a1-2)Gal(b1-3)GalNAc
# Outline: as §1
# [1] = target: Fuc(a1-2)Gal(b1-3)GalNAc(a1-3)[Fuc(a1-2)]Gal(b1-4)Glc
# Outline: as §1
# [2] = target: Fuc(a1-2)Gal(b1-3)GalNAc(a1-3)[Fuc(a1-2)]Gal(b1-4)GlcNAc
# Outline: as §1
# [3] = target: Fuc(a1-2)Gal(b1-3)GalNAc(b1-3)Gal
# Outline: as §1
# [4] = target: Fuc(a1-2)Gal(b1-3)GalNAc(b1-3)Gal(a1-4)Gal(b1-4)Glc
# Outline: as §1
# [5] = target: Fuc(a1-2)Gal(b1-3)GalNAc(b1-4)[Neu5Ac(a2-3)]Gal(b1-4)Glc
# Outline: as §1
# Fuc(a1-2)Gal(b1-3)GlcNAc = target: Fuc(a1-2)Gal(b1-3)GlcNAc
# Outline: as §1
# [6] = target: Fuc(a1-2)Gal(b1-3)GlcNAc(b1-2)Man(a1-3)[Fuc(a1-2)Gal(b1-3)GlcNAc(b1-2)Man(a1-6)]Man(b1-4)GlcNAc(b1-4)GlcNAc
# Outline: as §1
# [7] = target: Fuc(a1-2)Gal(b1-3)GlcNAc(b1-2)Man(a1-3)[Fuc(a1-2)Gal(b1-3)GlcNAc(b1-2)Man(a1-6)]Man(b1-4)GlcNAc(b1-4)[Fuc(a1-6)]GlcNAc
# Outline: as §1
# [8] = target: Fuc(a1-2)Gal(b1-3)GlcNAc(b1-3)Gal(b1-4)Glc
# Outline: as §1
# [9] = target: Fuc(a1-2)Gal(b1-3)GlcNAc(b1-3)GalNAc
# Outline: as §1
# [10] = target: Fuc(a1-2)Gal(b1-3)GlcNAc(b1-3)[Fuc(a1-2)Gal(b1-3)GlcNAc(b1-6)]GalNAc
# Outline: as §1
# [11] = target: Fuc(a1-2)Gal(b1-3)GlcNAc(b1-3)[Gal(b1-4)GlcNAc(b1-6)]Gal(b1-4)Glc
# Outline: as §1
# [12] = target: Fuc(a1-2)Gal(b1-3)GlcNAc(b1-3)[Neu5Ac(a2-6)Gal(b1-4)GlcNAc(b1-6)]Gal(b1-4)Glc
# Outline: as §1
# [13] = target: Fuc(a1-2)Gal(b1-3)GlcNAc6S
# Outline: as §1
# [14] = target: Fuc(a1-2)Gal(b1-3)[Fuc(a1-4)]GlcNAc
# Outline: as §1
# [15] = target: Fuc(a1-2)Gal(b1-3)[Fuc(a1-4)]GlcNAc(b1-2)Man(a1-3)[Fuc(a1-2)Gal(b1-3)[Fuc(a1-4)]GlcNAc(b1-2)Man(a1-3)]Man(b1-4)GlcNAc(b1-4)GlcNAc
# Outline: as §1
# [16] = target: Fuc(a1-2)Gal(b1-3)[Fuc(a1-4)]GlcNAc(b1-2)Man(a1-3)[Fuc(a1-2)Gal(b1-3)[Fuc(a1-4)]GlcNAc(b1-2)Man(a1-6)]Man(b1-4)GlcNAc(b1-4)[Fuc(a1-6)]GlcNAc(b1-4)[Fuc(a1-6)]GlcNAc
# Outline: as §1
# [17] = target: Fuc(a1-2)Gal(b1-3)[Fuc(a1-4)]GlcNAc(b1-3)[Fuc(a1-3)[Gal(b1-4)]GlcNAc(b1-6)]Gal(b1-4)Glc
# Outline: as §1
# [18] = target: Fuc(a1-2)Gal(b1-3)[Fuc(a1-4)]GlcNAc(b1-3)[Gal(b1-4)GlcNAc(b1-6)]Gal(b1-4)Glc
# Outline: as §1
# [19] = target: Fuc(a1-2)Gal(b1-4)Fuc(a1-3)]GlcNAc(b1-2)Man(a1-3)[Fuc(a1-2)Gal(b1-4)[Fuc(a1-3)]GlcNAc(b1-2)Man(a1-6)]Man(b1-4)GlcNAc(b1-4)GlcNAc
# Outline: as §1
# Fuc(a1-2)Gal(b1-4)Glc = target: Fuc(a1-2)Gal(b1-4)Glc
# Outline: as §1
# Fuc(a1-2)Gal(b1-4)Glc6S = target: Fuc(a1-2)Gal(b1-4)Glc6S
# Outline: as §1
# Fuc(a1-2)Gal(b1-4)GlcNAc = target: Fuc(a1-2)Gal(b1-4)GlcNAc
# Outline: as §1
# [20] = target: Fuc(a1-2)Gal(b1-4)GlcNAc(b1-2)Man
# Outline: as §1
# [21] = target: Fuc(a1-2)Gal(b1-4)GlcNAc(b1-2)Man(a1-3)[Fuc(a1-2)Gal(b1-4)GlcNAc(b1-2)Man(a1-6)]Man(b1-4)GlcNAc(b1-4)GlcNAc
# Outline: as §1
# [22] = target: Fuc(a1-2)Gal(b1-4)GlcNAc(b1-2)Man(a1-3)[Fuc(a1-2)Gal(b1-4)GlcNAc(b1-2)Man(a1-6)]Man(b1-4)GlcNAc(b1-4)[Fuc(a1-6)]GlcNAc
# Outline: as §1
# [23] = target: Fuc(a1-2)Gal(b1-4)GlcNAc(b1-2)[Fuc(a1-2)Gal(b1-4)GlcNAc(b1-4)]Man(a1-3)[Fuc(a1-2)Gal(b1-4)GlcNAc(b1-2)Man(a1-6)]Man(b1-4)GlcNAc(b1-4)GlcNAc
# Outline: as §1
# [24] = target: Fuc(a1-2)Gal(b1-4)GlcNAc(b1-3)Gal(b1-4)GlcNAc
# Outline: as §1
binder,measurement,setting,value
"HA-11100 (Pseudomonas aeruginosa), Q02G51_PSEAB (protein) QFNPNEIKISQQGKTTLIDQSTQRAIINWKGFDVSADEAVRFNQPGVTSSTLNRVTAGQESVIAGRISAPGQVIIYNSNGVVFSGSAKVDVGSLITTTANISDEHFRQGKLIFDQPGNPDARIVNDGSISVAEKGLAAFVAPSVANNGVINARLGTVAMAAGNAATIDLYG",glycan array binding signal (z-score),Fuc(a1-2)Gal,-0.09
same,glycan array binding signal (z-score),Fuc(a1-2)Gal(b1-3)GalNAc,0.01
same,glycan array binding signal (z-score),[1],-0.114
same,glycan array binding signal (z-score),[2],-0.287
same,glycan array binding signal (z-score),[3],-0.455
same,glycan array binding signal (z-score),[4],-0.179
same,glycan array binding signal (z-score),[5],-0.317
same,glycan array binding signal (z-score),Fuc(a1-2)Gal(b1-3)GlcNAc,-0.382
same,glycan array binding signal (z-score),[6],1.22
same,glycan array binding signal (z-score),[7],0.041
same,glycan array binding signal (z-score),[8],-0.309
same,glycan array binding signal (z-score),[9],-0.105
same,glycan array binding signal (z-score),[10],-0.549
same,glycan array binding signal (z-score),[11],-0.317
same,glycan array binding signal (z-score),[12],-0.222
same,glycan array binding signal (z-score),[13],-0.294
same,glycan array binding signal (z-score),[14],-0.341
same,glycan array binding signal (z-score),[15],-0.244
same,glycan array binding signal (z-score),[16],0.052
same,glycan array binding signal (z-score),[17],-0.356
same,glycan array binding signal (z-score),[18],-0.013
same,glycan array binding signal (z-score),[19],3.58
same,glycan array binding signal (z-score),Fuc(a1-2)Gal(b1-4)Glc,-0.41
same,glycan array binding signal (z-score),Fuc(a1-2)Gal(b1-4)Glc6S,-0.32
same,glycan array binding signal (z-score),Fuc(a1-2)Gal(b1-4)GlcNAc,0.026
same,glycan array binding signal (z-score),[20],-0.095
same,glycan array binding signal (z-score),[21],1.66
same,glycan array binding signal (z-score),[22],-0.357
same,glycan array binding signal (z-score),[23],0.009
same,glycan array binding signal (z-score),[24],-0.247
